Values marked as one replicate rest on one cluster of the flow cell; about a third of the high ones do not repeat.
Tested on: ATP
Experiment: switch fluorescence ratio, 500 uM ATP over buffer (Cy3 cluster intensity, sum of 5 cycles each) (fold (ratio)); higher = stronger signal-on switching upon ATP binding; sequences stand for … in TCGTCGGCAGCGTCAGATGTGTATAAGAGACAGTTTTTTTTTTTTTTTTTTTTTTTTT…TC
Conditions: aptamer strand: ATP DNA aptamer (quencher-CACCTGGGGGAGTATTGCGGAGGAAGG + anchor), 100 nM annealed; ATP concentration: 500 uM; one replicate
Procedure, shortened: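 Five buffer/ATP imaging cycles were run on Cy3-labelled switching-strand clusters on a modified Illumina MiSeq flow-cell, with NaOH stripping and re-annealing between cycles. In each cycle, clusters annealed to 100 nM quencher-labelled ATP aptamer were imaged in selection buffer, then after 15 min with 500 uM ATP at 22 °C. Per cluster, the fluorescence ratio is summed target-cycle over summed buffer-cycle Cy3 intensity, averaged per switch-domain sequence. Only clusters within 100-1000 RFU were kept.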
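Also: ATP exposure 15 min at 22 °C before imaging.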

| Sequence | switch fluorescence ratio |
| --- | --- |
| GAAATGCCCA | 0.984 |
| TTGGAGTGGA | 1.01 |
| TGGTCGTTGC | 0.932 |
| CAGCGAGCA | 1.05 |
| TAAATCGAAC | 1.09 |
| CGACAAGTTG | 1.07 |
| AGTACACGGT | 1 |
| TGTTTCCAAT | 1.02 |
| GTAACCGGAT | 0.985 |
| TTTCAATACG | 2.4 |
| CAAAGATGCC | 0.981 |
| CTGAGCCTCA | 1 |
| AGAGCTTAAA | 0.986 |
| GAAGCGTTCG | 1 |
| TTTCACAGTT | 0.985 |
| CCCGTGAGGA | 1.02 |
| TTGAAATATG | 1.05 |
| ACGTAATCGA | 1.27 |
| GGAAACGCTC | 1.03 |
| ACCAGTGAGG | 1.01 |
| TTATGGCCCT | 0.976 |
| CGGTTTATG | 0.985 |
| GTCGCAACGA | 1.04 |

| Sequence | switch fluorescence ratio |
| --- | --- |
| GTCGTCTGGA | 0.993 |
| ATGTCCCACA | 1.02 |
| ACAGTTGGCA | 0.987 |
| CACTTGAATA | 0.956 |
| TACTCATAAT | 1.04 |
| GGTGCGCGTA | 1.01 |
| TCCACTCTTA | 1.01 |
| GCTGCGGGCA | 0.982 |
| CTTCACCTC | 1.37 |
| AACCAATTTG | 0.922 |
| TCGAATAGGA | 1 |
| TATATAACGA | 0.995 |
| GGGACGCC | 0.972 |
| ATGCCAGTAG | 1.01 |
| GAAGGGGT | 0.997 |
| GCGCTTAGCT | 0.955 |
| ACCCTGCATC | 1.81 |
| ATCCGGCTTA | 1.04 |
| AAGCCATGTT | 1.02 |
| AACGTAATTA | 1.22 |
| CTAGGAGCC | 1.02 |
| ACGGATCTGT | 0.934 |
| CCCATTATAT | 1.03 |

| Sequence | switch fluorescence ratio |
| --- | --- |
| GAGTGCGTGG | 0.956 |
| TGCAGAAATA | 1.02 |
| TTTATAATAA | 1.02 |
| AGCGGACTTA | 0.966 |
| AAACTGGTCG | 0.977 |
| CTTAACCAGA | 0.972 |
| GGACATAGGA | 0.968 |
| GGAAATGCTA | 1.03 |
| ACGAATTT | 1.06 |
| AGTTAAGAGG | 0.993 |
| TGGATAATTG | 1.07 |
| CTAACTACAA | 1 |
| TAATGAATGG | 0.926 |
| GTGGGTCCAA | 0.986 |
| ATGTGTGTGT | 0.958 |
| TGCATAACCC | 1 |
| TTCGGGTAGA | 0.948 |
| GGTAGCAATT | 1.9 |
| TTTCTTTCCT | 1.04 |
| GAGGTAACGA | 0.947 |
| GCCGAAAGTG | 1.02 |
| GCTGAGACTT | 1.03 |
| TGATTTTAC | 1.05 |

| Sequence | switch fluorescence ratio |
| --- | --- |
| ATTCTCTGAC | 1.12 |
| GTTGCTTTAG | 0.974 |
| CTTATTGTTA | 1.03 |
| CCCCCTCAG | 1.17 |
| GAGTTACGTA | 1.04 |
| GAGAAATAAG | 1 |
| GGTGAGAGGG | 1.01 |
| GCTTGGCTGG | 1 |
| AGGAGCACAC | 1.48 |
| CCTGCAAGGA | 1.03 |
| AGGATCACGT | 0.959 |
| GTTGTTAGTG | 0.965 |
| AGGCATGCGT | 1.01 |
| TCGTGATTAG | 0.987 |
| GCGAGTTCCT | 1.01 |
| TAAATGTGCT | 0.957 |
| TCCAGATTGG | 1.01 |
| AGTAAAAGTG | 1.1 |
| CGAGGCGCGG | 0.983 |
| TCAGACGGG | 0.976 |
| ACAGACTAGA | 1.08 |
| ACCCGACGCT | 4.81 |
| ATAGTCAGTG | 0.969 |

| Sequence | switch fluorescence ratio |
| --- | --- |
| TTACTCTTAT | 1.11 |
| TTTAGGTTC | 0.97 |
| TGGATTCACG | 0.998 |
| GGCCGGAGCT | 1.02 |
| GCATGAGGG | 1.02 |
| CATTATGGTC | 1.06 |
| GTAGTCTACT | 1.02 |
| CACAGTTGGA | 0.984 |
| CCCAGCTACT | 2.46 |
| TTGCTATACA | 1.02 |
| CCTGCTTCAA | 1.54 |
| TTTGGGCGAT | 1.03 |
| CGTGCGTATC | 1.06 |
| GATCCCCGAT | 1 |
| CAGTCGGAAA | 0.968 |
| CAAAAGCGCC | 1.01 |
| AGCCTTATAA | 0.98 |
| AACAGAGCCT | 1.08 |
| TCTGTATG | 0.981 |
| CAGTTACTA | 0.999 |
| TGCGTATACG | 0.953 |
| ACCAGAGTCA | 0.987 |
| AACTCATTGC | 1.07 |

| Sequence | switch fluorescence ratio |
| --- | --- |
| GCAGGGTTGG | 1.01 |
| GTGGTAATTT | 0.981 |
| GTCAAACCAG | 1.06 |
| TTGAAGTGCA | 0.996 |
| ATGGGCTAAT | 1.01 |
| GTCGGAATGT | 1.02 |
| AAGCGAACGA | 1.05 |
| CTATATACTT | 1.05 |
| AGTTATGGTA | 1.06 |
| ACCGTGCCTC | 1.33 |
| CTACATTGGT | 0.974 |
| GACACCTTTA | 1.07 |
| AGGTATGTTC | 1.06 |
| GCGTTCTTCG | 1.04 |
| AAATCCACTC | 1.02 |
| CTGAATTTAA | 0.959 |
| TGGTCTTGGG | 0.985 |
| CGGTGCGACT | 1.04 |
| CATGAGTGGA | 1.04 |
| GCCGAGTAG | 0.981 |
| TGATCGTTCA | 0.99 |
| ATTCAGTTTC | 1.01 |
| ATCTATGTGA | 0.973 |

| Sequence | switch fluorescence ratio |
| --- | --- |
| TAAATGTGGC | 0.89 |
| GAATGAGGTC | 1 |
| GGACGCAGGG | 1.08 |
| ACTGAGGTTT | 1.03 |
| TTAGCGTAA | 1.03 |
| GATACGTATT | 1.35 |
| CACATTACTT | 1.32 |
| AGGTCGAGA | 1.02 |
| ACCGTCCATA | 1.07 |
| CGTTTCAGTC | 0.965 |
| GCTGGGCGGG | 1 |
| AAGGTAAGTG | 0.989 |
| CCAATCGAGG | 1.02 |
| GCCACAGGGG | 4.32 |
| AAGATAACAT | 1.01 |
| AACGCCAGCC | 1.17 |
| AGCGCGTGAA | 1.03 |
| ATCGGGGATG | 1.01 |
| GCCTATGGCG | 0.984 |
